Measured values taken from article PMC4848477.
No constants are given. Whether binding was seen depends on the method and setting. For some assays here: In cells and extracts the contact can be indirect. Some results given as binding are weak or reduced against the parent protein; the word gives no strength. Values belong to the substance of their own block, whether it stands above or below them.

Amino acid sequences for entries named in this document (tags omitted). A change or cut given only in a name is not applied to a line headed by its entry. Residues count along the entry.
UniProt P63086: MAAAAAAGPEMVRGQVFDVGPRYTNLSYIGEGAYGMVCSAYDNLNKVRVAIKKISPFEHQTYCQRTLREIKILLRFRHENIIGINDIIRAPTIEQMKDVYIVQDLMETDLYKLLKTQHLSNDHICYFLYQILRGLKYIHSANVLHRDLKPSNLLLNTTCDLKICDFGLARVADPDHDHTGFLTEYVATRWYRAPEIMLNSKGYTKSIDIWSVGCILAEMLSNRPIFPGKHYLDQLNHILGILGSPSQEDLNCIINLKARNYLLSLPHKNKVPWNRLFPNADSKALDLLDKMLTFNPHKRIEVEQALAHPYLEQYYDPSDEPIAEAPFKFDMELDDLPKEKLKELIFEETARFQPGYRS
UniProt P63085: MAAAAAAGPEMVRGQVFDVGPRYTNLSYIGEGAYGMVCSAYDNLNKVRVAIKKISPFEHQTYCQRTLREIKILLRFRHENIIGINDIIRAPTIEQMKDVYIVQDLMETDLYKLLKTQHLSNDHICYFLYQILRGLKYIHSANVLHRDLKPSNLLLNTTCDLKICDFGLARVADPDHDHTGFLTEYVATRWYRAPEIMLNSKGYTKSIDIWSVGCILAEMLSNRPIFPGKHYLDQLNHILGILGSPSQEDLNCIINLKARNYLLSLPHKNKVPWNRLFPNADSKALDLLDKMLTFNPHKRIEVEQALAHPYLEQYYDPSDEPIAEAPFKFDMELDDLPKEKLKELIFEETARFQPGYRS
UniProt P18887: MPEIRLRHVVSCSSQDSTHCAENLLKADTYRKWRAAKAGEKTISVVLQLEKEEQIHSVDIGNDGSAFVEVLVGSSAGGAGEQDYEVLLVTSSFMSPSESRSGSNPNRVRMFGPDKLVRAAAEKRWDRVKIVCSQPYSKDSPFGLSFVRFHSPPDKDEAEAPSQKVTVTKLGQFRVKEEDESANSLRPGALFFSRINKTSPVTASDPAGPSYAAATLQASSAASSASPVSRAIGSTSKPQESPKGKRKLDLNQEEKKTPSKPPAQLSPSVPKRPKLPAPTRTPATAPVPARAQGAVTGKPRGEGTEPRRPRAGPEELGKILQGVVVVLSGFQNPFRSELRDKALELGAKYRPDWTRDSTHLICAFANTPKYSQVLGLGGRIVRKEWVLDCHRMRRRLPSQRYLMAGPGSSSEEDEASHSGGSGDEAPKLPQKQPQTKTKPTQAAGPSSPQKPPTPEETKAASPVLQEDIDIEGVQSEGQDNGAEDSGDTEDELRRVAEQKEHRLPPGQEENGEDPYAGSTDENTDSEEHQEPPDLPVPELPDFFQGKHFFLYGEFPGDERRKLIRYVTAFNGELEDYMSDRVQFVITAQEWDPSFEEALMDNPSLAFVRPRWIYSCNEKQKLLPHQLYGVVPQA
UniProt P02769, residues 25-607: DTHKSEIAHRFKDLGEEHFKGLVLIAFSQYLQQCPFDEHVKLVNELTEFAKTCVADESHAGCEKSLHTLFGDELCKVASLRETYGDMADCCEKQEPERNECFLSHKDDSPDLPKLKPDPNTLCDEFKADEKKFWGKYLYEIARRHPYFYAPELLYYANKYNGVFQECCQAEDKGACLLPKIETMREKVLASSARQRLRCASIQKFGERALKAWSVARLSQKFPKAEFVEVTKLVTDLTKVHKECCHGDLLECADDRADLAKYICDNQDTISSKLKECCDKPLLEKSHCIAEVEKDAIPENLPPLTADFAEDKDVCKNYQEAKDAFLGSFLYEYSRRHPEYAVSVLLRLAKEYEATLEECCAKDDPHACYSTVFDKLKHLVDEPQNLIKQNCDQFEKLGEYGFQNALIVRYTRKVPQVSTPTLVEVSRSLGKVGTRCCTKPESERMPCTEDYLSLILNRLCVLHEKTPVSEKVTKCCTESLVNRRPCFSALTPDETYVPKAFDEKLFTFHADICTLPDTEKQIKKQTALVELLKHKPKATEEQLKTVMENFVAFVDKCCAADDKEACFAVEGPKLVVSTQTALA
UniProt P09874: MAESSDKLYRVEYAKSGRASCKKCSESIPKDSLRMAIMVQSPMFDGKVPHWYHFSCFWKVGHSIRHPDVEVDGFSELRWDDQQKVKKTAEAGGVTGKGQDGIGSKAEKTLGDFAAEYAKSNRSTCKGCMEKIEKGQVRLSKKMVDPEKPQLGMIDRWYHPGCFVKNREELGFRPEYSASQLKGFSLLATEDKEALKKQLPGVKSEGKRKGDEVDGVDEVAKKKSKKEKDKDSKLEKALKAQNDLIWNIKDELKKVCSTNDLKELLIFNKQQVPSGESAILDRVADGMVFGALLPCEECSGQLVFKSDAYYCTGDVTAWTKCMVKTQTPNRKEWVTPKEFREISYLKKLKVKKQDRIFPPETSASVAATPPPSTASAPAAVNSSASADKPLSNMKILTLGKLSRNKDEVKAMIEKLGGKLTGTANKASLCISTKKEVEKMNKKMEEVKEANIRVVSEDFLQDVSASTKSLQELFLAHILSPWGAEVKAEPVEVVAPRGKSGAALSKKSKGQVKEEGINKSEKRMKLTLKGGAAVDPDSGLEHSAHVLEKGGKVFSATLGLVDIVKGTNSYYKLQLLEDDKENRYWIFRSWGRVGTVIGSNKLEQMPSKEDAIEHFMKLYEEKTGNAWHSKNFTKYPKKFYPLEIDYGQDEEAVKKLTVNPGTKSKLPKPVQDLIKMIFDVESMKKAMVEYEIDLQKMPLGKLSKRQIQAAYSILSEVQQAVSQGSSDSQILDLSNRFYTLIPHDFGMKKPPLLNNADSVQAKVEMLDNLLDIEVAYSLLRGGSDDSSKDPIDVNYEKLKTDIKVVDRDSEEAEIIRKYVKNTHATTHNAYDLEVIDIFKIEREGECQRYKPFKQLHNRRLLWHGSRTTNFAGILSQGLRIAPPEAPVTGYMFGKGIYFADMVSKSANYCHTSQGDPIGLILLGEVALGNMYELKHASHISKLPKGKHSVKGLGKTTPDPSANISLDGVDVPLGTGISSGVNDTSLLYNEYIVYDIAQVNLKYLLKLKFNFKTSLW
UniProt P27008: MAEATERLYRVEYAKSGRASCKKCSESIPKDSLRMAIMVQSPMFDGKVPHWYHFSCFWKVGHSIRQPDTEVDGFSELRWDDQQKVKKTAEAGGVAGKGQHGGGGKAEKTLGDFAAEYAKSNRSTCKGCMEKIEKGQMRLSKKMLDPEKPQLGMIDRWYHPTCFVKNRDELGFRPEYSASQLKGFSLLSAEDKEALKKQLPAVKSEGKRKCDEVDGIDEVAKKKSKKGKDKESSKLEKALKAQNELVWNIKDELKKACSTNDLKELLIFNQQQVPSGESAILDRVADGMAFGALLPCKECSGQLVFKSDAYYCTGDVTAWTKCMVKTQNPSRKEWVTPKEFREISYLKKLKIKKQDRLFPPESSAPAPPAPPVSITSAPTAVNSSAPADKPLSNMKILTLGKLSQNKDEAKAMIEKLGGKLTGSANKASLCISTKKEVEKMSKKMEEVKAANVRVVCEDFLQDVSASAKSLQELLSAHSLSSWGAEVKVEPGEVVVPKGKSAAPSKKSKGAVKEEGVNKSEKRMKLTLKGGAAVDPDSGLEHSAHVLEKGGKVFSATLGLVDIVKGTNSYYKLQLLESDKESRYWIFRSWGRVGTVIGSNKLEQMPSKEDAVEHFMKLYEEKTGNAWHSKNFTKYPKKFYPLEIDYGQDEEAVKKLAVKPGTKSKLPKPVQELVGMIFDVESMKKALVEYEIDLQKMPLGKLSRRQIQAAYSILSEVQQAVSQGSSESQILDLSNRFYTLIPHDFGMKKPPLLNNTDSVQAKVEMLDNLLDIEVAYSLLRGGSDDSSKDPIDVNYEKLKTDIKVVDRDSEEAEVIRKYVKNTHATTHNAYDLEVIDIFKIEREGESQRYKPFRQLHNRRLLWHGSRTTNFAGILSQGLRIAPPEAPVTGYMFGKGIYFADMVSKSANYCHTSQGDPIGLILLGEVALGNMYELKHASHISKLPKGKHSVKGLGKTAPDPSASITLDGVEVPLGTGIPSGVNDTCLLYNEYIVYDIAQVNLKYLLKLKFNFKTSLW
UniProt Q01147: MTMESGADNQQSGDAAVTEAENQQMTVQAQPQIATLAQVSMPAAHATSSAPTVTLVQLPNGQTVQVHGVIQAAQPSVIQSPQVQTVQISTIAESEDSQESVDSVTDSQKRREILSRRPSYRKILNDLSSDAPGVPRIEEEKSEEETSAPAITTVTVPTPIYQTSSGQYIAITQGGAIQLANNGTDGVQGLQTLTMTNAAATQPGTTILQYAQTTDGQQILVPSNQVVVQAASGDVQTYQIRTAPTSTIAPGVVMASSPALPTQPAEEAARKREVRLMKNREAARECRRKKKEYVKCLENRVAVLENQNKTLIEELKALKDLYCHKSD

Legend:
[1] = target: recombinant phosphorylated Erk2 (UniProt P63086); test: far-Western, overlay or dot blot; dot blot: r-p-Erk2 (1 μg) and control proteins on nitrocellulose; incubated 3 h at room temperature with 5 μg/ml purified recombinant PARP1, PARP1 domains or polyADP-ribosylated PARP1 in 50 mM Tris-HCl pH7.5, 120 mM NaCl, 0.1% NP40, 0.5 mM PMSF, 20 mg/ml BSA; detected with antibodies; both purified
[2] = target: phosphorylated Erk2, endogenous in mouse cerebral neurons and hippocampal slices (mouse (endogenous in cerebral neurons and hippocampal slices)) (UniProt P63085); test: co-IP; as a3, crosslinked chromatin of stimulated cerebral neurons of PARP1-KO mice; Erk2 antibody
[3] = target: recombinant phosphorylated Erk2 (UniProt P63086); test: co-IP; recombinant proteins, r-PARP1 200 nM and r-p-Erk2 200 nM, in the presence of ssDNA (400 nM) and βNAD (dose series); both purified
[4] = target: XRCC1 (X-ray repair cross complementing protein-1) (UniProt P18887); test: far-Western, overlay or dot blot; dot blot: r-p-Erk2 (1 μg) and control proteins on nitrocellulose; incubated 3 h at room temperature with 5 μg/ml purified recombinant PARP1, PARP1 domains or polyADP-ribosylated PARP1 in 50 mM Tris-HCl pH7.5, 120 mM NaCl, 0.1% NP40, 0.5 mM PMSF, 20 mg/ml BSA; detected with antibodies; both purified
[5] = target: phosphorylated Erk2 (extracellular signal regulated kinase-2), endogenous in rat cerebral neurons (rat (endogenous in cultured cerebral neurons)) (UniProt P63086); test: co-IP; nuclear protein extracts of cultured rat cerebral neurons after high frequency stimulation (3 repeats of 1 sec pulse, 100 Hz, 10 sec pause); antibody against the c-terminal of Erk2; Protein A/G Agarose Beads, 1 h, 4 °C
[6] = target: recombinant phosphorylated Erk2 (UniProt P63086); test: co-IP; recombinant proteins, 200 ng each, no ssDNA; antibody against the c-terminal of Erk2 or against PARP1 (Alexis, ALX210-302); Protein A/G Agarose Beads; both purified
[7] = target: recombinant phosphorylated Erk2 (UniProt P63086); test: co-IP; recombinant proteins, r-PARP1 200 ng and r-p-Erk2 200 ng, with ssDNA (1 μg) and the recombinant A-B domain of PARP1 (200 ng); both purified
[8] = target: BSA (bovine (from the name BSA)) (UniProt P02769); test: far-Western, overlay or dot blot; dot blot: r-p-Erk2 (1 μg) and control proteins on nitrocellulose; incubated 3 h at room temperature with 5 μg/ml purified recombinant PARP1, PARP1 domains or polyADP-ribosylated PARP1 in 50 mM Tris-HCl pH7.5, 120 mM NaCl, 0.1% NP40, 0.5 mM PMSF, 20 mg/ml BSA; detected with antibodies; both purified
[9] = target: recombinant phosphorylated Erk2 (UniProt P63086); test: co-IP; recombinant proteins, r-PARP1 200 ng and r-p-Erk2 200 ng, in the presence of ssDNA (1 μg); both purified

Substance: recombinant (A-D) auto-modification domain of PARP1 (aa1-524) (from UniProt P09874 1-524) (domain or fragment)
binding [1]: no binding (tested: 5 μg/ml)

Substance: polyADP-ribosylated recombinant human PARP1 (from UniProt P09874 1-1014)
binding [3]: binds | binding [4]: binds | binding [1]: binds

Substance: PARP1 (polyADP-ribose polymerase 1), endogenous in rat cerebral neurons (from UniProt P27008 1-1014)
binding [5]: binds

Substance: recombinant human PARP1 (from UniProt P09874 1-1014)
binding [7]: binds | binding [4]: binds | binding [8]: no binding (tested: 5 μg/ml) | binding [1]: binds | binding [9]: no binding (condition: with ssDNA (1 μg)) | binding [6]: binds

Further lines, results first:

binding [2]: binds weakly
Substance: CREB, endogenous in mouse cerebral neurons (from UniProt Q01147 1-327)

binding [6]: no binding
Substance: recombinant PARP1 (1-494aa) (from UniProt P09874 1-494) (domain or fragment)

binding [1]: no binding (tested: 5 μg/ml)
Substance: recombinant DNA-binding domain of PARP1 (A-B domain; aa1-201) (from UniProt P09874 1-201) (domain or fragment)
